Reference: patent US10465009B2, “BCMA antigen binding proteins” (Amgen Inc., priority 2012, dated 2019)

T1: huBCMA on H929 cells (Homo sapiens, UniProt Q02223, N81S)
T1 construct: endogenous in cells; host or cells: H929 human multiple myeloma cell line
T1 sequence (Q02223 1-184 N81S): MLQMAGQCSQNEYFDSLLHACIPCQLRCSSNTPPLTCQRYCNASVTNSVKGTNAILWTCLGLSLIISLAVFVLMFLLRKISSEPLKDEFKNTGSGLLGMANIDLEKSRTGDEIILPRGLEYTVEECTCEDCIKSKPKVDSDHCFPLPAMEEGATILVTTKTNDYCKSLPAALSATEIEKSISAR


Target: T1, huBCMA on H929 cells
Assay: FACS binding to native BCMA on H929 myeloma cells
Settings: flow cytometry; muteins relative to parental 2A1
Description: Approximately 10 to 40×10^6 of H929 myeloma cells were resuspended in a staining solution (2% goat serum, 1% rabbit serum, 0.02% azide in PBS) and aliquoted into round-bottom, 96-well plate (Corning Incorp., Acton, Mass.) as per the experiment design. The cells were incubated at 4 degrees celsius for 30 minutes to block non-specific sites. The antibodies were titrated into the staining solution. The cells were rinsed in a rinse solution (PBS+0.02% azide) by resuspending the cells in 200 ul/well. The cells were centrifuged at 1500 rpm at 4 degrees celsius for 7 minutes. The rinse solution was removed and the rinse step was repeated. […] The huIgG1 negative control's secondary reagent was a biotinylated anti-huIgG (Jackson Labs, Bar Harbor, Me., Cat. 109-065-098), followed by a streptavidin-phycoerythrin (SA-PE) conjugate (BD Pharmingen, San Diego, Calif., Cat. 554061). […] The cells/antibodies were rinsed as described above to remove excess/unbound antibody. After the last rinse, the cells were resuspended in 200 ul of rinse solution with a drop of staining solution added to keep the cells from aggregating. Samples were read at 532 nm wavelength on FACS.
To further characterize the engineered mutein antibodies, they were tested for the ability to bind BCMA by FACS analysis. The antibodies were tested for binding to BCMA endogenously-expressed on a variety of cells, including the H929 cell line, which were developed from B-lymphocytes from a myeloma/plasmacytoma patient (ATCC, Manassa, Va.) using standard FACs techniques. Reagents were prepared using standard methods: 500 mL FACs buffer (PBS, 1% BSA, 5 mM EDTA, 0.02% NaN3), and FACs Block Buffer (30 mL FACs buffer, 5% Normal Rabbit Serum, 5% Normal Human Serum). Approximately 10 to 50×10^6 H929 cells were aliquoted in a standard 96 well plate (preferably deep-well, such as those provide by Corning). The cell volumes were adjusted to bring all volumes up to 1 mL/tube w/FACs buffer. The cells were centrifuged at 4° C. for 10 minutes at 1200 rpm. The supernatants were removed and the cell pellets were resuspended in 100 uL of FACs Block Buffer per tube. The cells were incubated for 30 to 60 minutes on ice. The BCMA antibodies were prepared by making premixes of 1:3 serial dilutions of antibodies in FACS Block Buffer starting at 10 ug/ml antibody (for example) in a final volume of 100 ul. The blocked cells were centrifuged at 4° C. for 10 minutes at 1200 rpm. The supernatants were removed and the cell pellets were resuspended in 100 uL of FACs Block Buffer containing the BCMA antibodies. The cells were incubated for 60 minutes on ice. After incubation, 1 mL of cold FACs Block Buffer was added to each tube. The cells were centrifuged at 4° C. for 10 minutes at 1200 rpm. The supernatants were removed and the cell pellets were resuspended in 100 uL of FACs Block Buffer containing biotinylated anti-huIgG (Jackson Labs, Bar Harbor, Me., Cat. 109-065-098) at a 1:100 dilution in FACs Block Buffer. The cells were incubated for 45 minutes on ice. After incubation, 1 mL of cold FACs Block Buffer was added to each tube. The cells were centrifuged at 4° C. for 10 minutes at 1200 rpm. […] The supernatants were removed and the cell pellets were resuspended in 0.2 mL/tube 4% paraformaldehyde in PBS and analyzed by flow cytometry

Molecule	binding to BCMA on H929 cells
2A1 covariance 3: 2A1_F44V + C107T; heavy chain SEQ ID NO:291, light chain 288 (antibody) heavy: EVQLVESGGGLVKPGRSLRLSCTASGFTFGDYALSWVRQAPGKGLEWVGVSRSKAYGGTTDYAASVKGRFTISRDDSKSFAYLQMNSLKTEDTAVYYCTSSGYSSGWTPFDYWGQGTLVTVSS[omitted - human IgG1 constant region] light: QSVLTQPPSASGTPGQRVTISCSGSSSNIGSNTVNWYQQLPGTAPKLLIFNYHQRPSGVPDRFSGSKSGSSASLAISGLQSEDEADYYCAAWDDSLNGWVFGGGTELTVLGQPKAAPSVTLFPPSSEELQANKATLVCLISDFYPGAVTVAWKADSSPVKAGVETTTPSKQSNNKYAASSYLSLTPEQWKSHRSYSCQVTHEGSTVEKTVAPTECS	reduced binding
2A1 covariance 9: 2A1_F44V + C107A; heavy chain SEQ ID NO:297, light chain 288 (antibody) heavy: EVQLVESGGGLVKPGRSLRLSCTASGFTFGDYALSWVRQAPGKGLEWVGVSRSKAYGGTTDYAASVKGRFTISRDDSKSFAYLQMNSLKTEDTAVYYCASSGYSSGWTPFDYWGQGTLVTVSS[omitted - human IgG1 constant region] light: QSVLTQPPSASGTPGQRVTISCSGSSSNIGSNTVNWYQQLPGTAPKLLIFNYHQRPSGVPDRFSGSKSGSSASLAISGLQSEDEADYYCAAWDDSLNGWVFGGGTELTVLGQPKAAPSVTLFPPSSEELQANKATLVCLISDFYPGAVTVAWKADSSPVKAGVETTTPSKQSNNKYAASSYLSLTPEQWKSHRSYSCQVTHEGSTVEKTVAPTECS	reduced binding
2A1 S108R: 2A1 mutein S108R (antibody) heavy: EVQLVESGGGLVKPGRSLRLSCTASGFTFGDYALSWFRQAPGKGLEWVGVSRSKAYGGTTDYAASVKGRFTISRDDSKSFAYLQMNSLKTEDTAVYYCCRSGYSSGWTPFDYWGQGTLVTVSS[omitted - human IgG1 constant region] light: QSVLTQPPSASGTPGQRVTISCSGSSSNIGSNTVNWYQQLPGTAPKLLIFNYHQRPSGVPDRFSGSKSGSSASLAISGLQSEDEADYYCAAWDDSLNGWVFGGGTELTVLGQPKAAPSVTLFPPSSEELQANKATLVCLISDFYPGAVTVAWKADSSPVKAGVETTTPSKQSNNKYAASSYLSLTPEQWKSHRSYSCQVTHEGSTVEKTVAPTECS	comparable binding
2A1 covariance 1: 2A1 mutein C107T; heavy chain SEQ ID NO:289, light chain SEQ ID NO:288 (antibody) heavy: EVQLVESGGGLVKPGRSLRLSCTASGFTFGDYALSWFRQAPGKGLEWVGVSRSKAYGGTTDYAASVKGRFTISRDDSKSFAYLQMNSLKTEDTAVYYCTSSGYSSGWTPFDYWGQGTLVTVSS[omitted - human IgG1 constant region] light: QSVLTQPPSASGTPGQRVTISCSGSSSNIGSNTVNWYQQLPGTAPKLLIFNYHQRPSGVPDRFSGSKSGSSASLAISGLQSEDEADYYCAAWDDSLNGWVFGGGTELTVLGQPKAAPSVTLFPPSSEELQANKATLVCLISDFYPGAVTVAWKADSSPVKAGVETTTPSKQSNNKYAASSYLSLTPEQWKSHRSYSCQVTHEGSTVEKTVAPTECS	comparable binding
2A1 covariance 8: 2A1_F44V + F88T + C107T; heavy chain SEQ ID NO:296, light chain 288 (antibody) heavy: EVQLVESGGGLVKPGRSLRLSCTASGFTFGDYALSWVRQAPGKGLEWVGVSRSKAYGGTTDYAASVKGRFTISRDDSKSTAYLQMNSLKTEDTAVYYCTSSGYSSGWTPFDYWGQGTLVTVSS[omitted - human IgG1 constant region] light: QSVLTQPPSASGTPGQRVTISCSGSSSNIGSNTVNWYQQLPGTAPKLLIFNYHQRPSGVPDRFSGSKSGSSASLAISGLQSEDEADYYCAAWDDSLNGWVFGGGTELTVLGQPKAAPSVTLFPPSSEELQANKATLVCLISDFYPGAVTVAWKADSSPVKAGVETTTPSKQSNNKYAASSYLSLTPEQWKSHRSYSCQVTHEGSTVEKTVAPTECS	reduced binding
